Results: the RNAGym collection of RNA variant scans (doi:10.7554/elife.90254)
Read counts are not given, so values of variants with three or more changes are uncertain.

B1: LINE1-mini (parent)
chain: GGCAGAGCUCAACACAGCGUGGCAAAGUGGCUGUGGCUAGACUGCC

Variants of: B1
Assay: self-cleavage, relative activity (ratio to wild type); higher = more cleavage; in vitro, sequencing; the parent is a self-cleaving ribozyme

With A6C U43A G44A as the variant, how does the self-cleavage read?
Its self-cleavage is 0.01.

Which self-cleavage does the source give for A6G A25U G40A here?
The self-cleavage was 0.2.

Which self-cleavage does the source give for A6C G21C G29C here?
The self-cleavage was 0.45.

For A6C C18U G22U A25C C37U U38C A41G, which self-cleavage is on record?
Its self-cleavage is 0.04.

For A6C C37U A39C, which self-cleavage is on record?
The self-cleavage was 0.

With A6G C15A C18G as the variant, how does the self-cleavage read?
Its self-cleavage is 0.

Which self-cleavage does the source give for A6G C8G A16C here?
The self-cleavage was 0.

For A6G A11G A14U C23A G27U, which self-cleavage is on record?
Its self-cleavage is 0.

For A6G A14C U34C A39C, which self-cleavage is on record?
Its self-cleavage is 0.06.

For A6C G7C G17A U20A C31A, which self-cleavage is on record?
The self-cleavage was 0.04.

With A6C G30U A39C as the variant, how does the self-cleavage read?
Its self-cleavage is 0.12.

For A6G C8A U9A G22A U32G, which self-cleavage is on record?
Its self-cleavage is 0.1.

For A6G C8A G40U A41G, which self-cleavage is on record?
Its self-cleavage is 0.02.

With A6C G7U C15U G36A as the variant, how does the self-cleavage read?
The self-cleavage was 0.08.

With A6C C37G G40U as the variant, how does the self-cleavage read?
The self-cleavage was 0.09.

For A6G C8A A25U U38C, which self-cleavage is on record?
Its self-cleavage is 0.12.

Which self-cleavage does the source give for A6G A11C A12U C42U G44A here?
Its self-cleavage is 0.05.

Which self-cleavage does the source give for A6C G17U C23A here?
The self-cleavage was 0.11.

For A6C G21A G27C U28A, which self-cleavage is on record?
The self-cleavage was 0.3.

For A6G C15G A24G G29C G36C, which self-cleavage is on record?
Its self-cleavage is 0.02.

For A6G A11C A39C G44U, which self-cleavage is on record?
Its self-cleavage is 0.02.

Which self-cleavage does the source give for A6G A11U G29C G36C C45A here?
The self-cleavage was 0.01.

For A6C C18A U34G C46U, which self-cleavage is on record?
Its self-cleavage is 0.01.

Which self-cleavage does the source give for A6C C18G G22A U38G here?
Its self-cleavage is 0.02.

For A6C U20C U28C C45U, which self-cleavage is on record?
Its self-cleavage is 0.59.

Which self-cleavage does the source give for A6G A14G G21U C42G here?
Its self-cleavage is 0.01.

For A6G A11G C37A, which self-cleavage is on record?
The self-cleavage was 0.

For A6C U20G A41U C42A, which self-cleavage is on record?
Its self-cleavage is 0.07.

For A6C G22U A24G U28C, which self-cleavage is on record?
Its self-cleavage is 0.18.

Which self-cleavage does the source give for A6C C18U C23U G35U G44A here?
The self-cleavage was 0.02.

Which self-cleavage does the source give for A6C U32G G33U here?
Its self-cleavage is 0.07.

For A6C G7U C8A A11U A14C C15G C23G, which self-cleavage is on record?
Its self-cleavage is 0.01.

Which self-cleavage does the source give for A6G C8A G19U U38C C42A here?
Its self-cleavage is 0.06.

For A6G A14G G36A, which self-cleavage is on record?
Its self-cleavage is 0.07.

Which self-cleavage does the source give for A6C C15G G40C C46G here?
Its self-cleavage is 0.01.

Which self-cleavage does the source give for A6C G7U C10U G22A here?
The self-cleavage was 0.04.

For A6C U9C C13A C42A, which self-cleavage is on record?
Its self-cleavage is 0.05.

For A6C U20G C42A, which self-cleavage is on record?
Its self-cleavage is 0.13.

With A6G A12G C18U C23U as the variant, how does the self-cleavage read?
The self-cleavage was 0.01.

Which self-cleavage does the source give for A6C G17A C42U here?
The self-cleavage was 0.11.

For A6G A11C A14G G40A, which self-cleavage is on record?
The self-cleavage was 0.

Which self-cleavage does the source give for A6C G7A G36U C37U C46G here?
Its self-cleavage is 0.02.

Which self-cleavage does the source give for A6G C13U A26U U38G C42U here?
Its self-cleavage is 0.05.

Which self-cleavage does the source give for A6G C10G U28G G30C C45U here?
Its self-cleavage is 0.01.

With A6G A16G G17C C42G as the variant, how does the self-cleavage read?
The self-cleavage was 0.02.

For A6G C13A G21U, which self-cleavage is on record?
The self-cleavage was 0.15.

With A6G C8G C10A C18U A41U as the variant, how does the self-cleavage read?
Its self-cleavage is 0.01.

For A6G A11G A16C C31A, which self-cleavage is on record?
The self-cleavage was 0.02.

With A6C G7A U20A G21C U32C C45G as the variant, how does the self-cleavage read?
The self-cleavage was 0.06.

With A6G A39U G44U as the variant, how does the self-cleavage read?
The self-cleavage was 0.05.

Which self-cleavage does the source give for A6G A12G G29U U34A here?
The self-cleavage was 0.

Which self-cleavage does the source give for A6C C23A G40A here?
Its self-cleavage is 0.06.

For A6G C8U G17C, which self-cleavage is on record?
The self-cleavage was 0.3.

With A6C G7U C15U as the variant, how does the self-cleavage read?
Its self-cleavage is 0.15.

With A6G A12G C13U U20A A25U as the variant, how does the self-cleavage read?
Its self-cleavage is 0.02.

For A6C U34C C42U, which self-cleavage is on record?
The self-cleavage was 0.05.

For A6C G27C G33C, which self-cleavage is on record?
Its self-cleavage is 0.03.

Which self-cleavage does the source give for A6C G40A C42G here?
Its self-cleavage is 0.02.

For A6C G27C G29C C45G, which self-cleavage is on record?
Its self-cleavage is 0.09.

For A6C U9A A14U C23U A26C G30A G33U, which self-cleavage is on record?
The self-cleavage was 0.08.

For A6C G30C U34A, which self-cleavage is on record?
The self-cleavage was 0.05.

Which self-cleavage does the source give for A6G C10A C23U here?
Its self-cleavage is 0.05.

For A6C C18A G30A U38G, which self-cleavage is on record?
Its self-cleavage is 0.02.

For A6C G7C G19A G21A G30C U32C G40C, which self-cleavage is on record?
The self-cleavage was 0.05.

With A6C C23U G40C C42A as the variant, how does the self-cleavage read?
The self-cleavage was 0.03.

Which self-cleavage does the source give for A6C G27A G36U A39C here?
The self-cleavage was 0.05.

Which self-cleavage does the source give for A6G C13A C42A C46A here?
Its self-cleavage is 0.29.

With A6C G19U A26U as the variant, how does the self-cleavage read?
The self-cleavage was 0.82.

Which self-cleavage does the source give for A6G C8A G17U U38G C42U here?
Its self-cleavage is 0.11.

With A6G A26C U34G as the variant, how does the self-cleavage read?
Its self-cleavage is 0.01.

Which self-cleavage does the source give for A6C C15U G22A C31A U38A U43A here?
Its self-cleavage is 0.01.

Which self-cleavage does the source give for A6G C8A G27C U28C G33C here?
Its self-cleavage is 0.04.

For A6G A16G U43C, which self-cleavage is on record?
Its self-cleavage is 0.07.

Which self-cleavage does the source give for A6G C10A C15U C46A here?
Its self-cleavage is 0.04.

Which self-cleavage does the source give for A6G C10A C45G here?
The self-cleavage was 0.02.

Which self-cleavage does the source give for A6G C10A A12C C46A here?
The self-cleavage was 0.01.

Which self-cleavage does the source give for A6C G30U C45A here?
Its self-cleavage is 0.21.

Which self-cleavage does the source give for A6C G19C G36A here?
Its self-cleavage is 0.2.

Which self-cleavage does the source give for A6G C10A G19U U34G here?
The self-cleavage was 0.02.

For A6C U20C G33U G35U G36A, which self-cleavage is on record?
Its self-cleavage is 0.04.

Which self-cleavage does the source give for A6C G19U U34A A39G here?
Its self-cleavage is 0.04.

For A6G A24G A25U C46G, which self-cleavage is on record?
The self-cleavage was 0.22.

Which self-cleavage does the source give for A6G C10A C15G C23U A25C G30U A39U G44U here?
Its self-cleavage is 0.

For A6G C8A G19U, which self-cleavage is on record?
The self-cleavage was 0.23.
